By AC50 is commonly meant the concentration at which the activity in the assay is half-maximal.

The other results are listed elsewhere or left out. Further columns of the screen follow, without active or inactive calls. The list favours compounds with an active or inconclusive main result. Potencies come from curve fits of mixed quality, noted in brackets.
Tags give direction and shape of the fitted curve.

One test can be described thus: qHTS Assay for Lipid Storage Modulators (AID 1519). Conditions: Drosophila S3 cells, BODIPY lipid droplet/cell ratio, laser cytometry; measured here: lipid (BODIPY) channel AC50; cells loaded with oleic acid. The essentials:
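Cells seeded at 5,000 per well were treated with compounds over a concentration series and loaded with oleic acid (400 uM, as added). Lipid droplet fluorescence (488 nm excitation, 500-530 nm channel) was read by laser-scanning cytometry and normalized to 20 uM Triacsin C.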
(In qHTS, concentration-response curves come from the screen itself.)
With `CC(=O)OC1c2c(ccc3ccc(=O)oc23)OC(C)(C)C1OC(=O)CC(C)C` (stereo not given), the AC50 was 17.8 µM [falling, partial curve].

Consider `O=c1c(-c2ccc(F)cc2)nc2cnc(Nc3ccccc3)nc2n1C[C@H]1CCCO1`, for which the AC50 is 5.01 µM [falling, full curve]. As to `CCOc1nc2cccc(C(=O)OC(C)OC(=O)OC3CCCCC3)c2n1Cc1ccc(-c2ccccc2-c2nn[nH]n2)cc1` (stereo not given), the AC50 is 4.47 µM [falling, partial curve].

Take `COC(=O)CC1C(C)(C)C(OC(C)=O)C2[C@H](OC(C)=O)[C@]34O[C@]2(O)[C@]1(C)C3CC[C@]1(C)C4=CC(=O)OC1c1ccoc1` (stereo not given in full): the AC50 was 14.1 µM [falling, partial curve].

A further test is described as follows: Cell-based coincidence reporter assay to measure PMP22 gene transcription in S16 Pmp22-F2sN cells - Confirmatory screen (AID 1508646). Conditions: S16 Schwann cells Pmp22-F2sN, dual luciferase, 24 h; measured here: FLuc reporter channel. The essentials:
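S16 rat Schwann cells carrying FLuc-2A-NLuc reporter in Pmp22 3' UTR (500-1,000 cells/well) treated with pinned compounds for 24 h at 37C. Dual-luciferase reads: FLuc luminescence first, then NLuc after Stop&Glo.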
(In general: Reporter assays use an easily measured gene product as a stand-in for the process of interest.)
Take `CCC(Sc1nc2ccccc2c2nc(-c3ccccc3)nn12)C(=O)Nc1cccc(OC)c1` (stereo not given): the AC50 was 13.7 µM [falling, partial curve].

Turning to `COc1c(Cl)cc(Cl)cc1/C=C(\C#N)c1nc2ccccc2[nH]1`, the AC50 was 24.3 µM [falling, partial curve]. Same read-out and setting: with `Cc1cc(NC(=O)C2CCCN(S(=O)(=O)c3cccc4nonc34)C2)ccc1Br` (stereo not given) the figure was 17.2 µM [falling, partial curve]; with `Cc1ccc(CNC(=O)c2ccc(Cn3c(=O)c4ccccc4n(CC(=O)Nc4ccc(C)cc4C)c3=O)cc2)cc1`, 15.3 µM [falling, full curve]; with `CCOC(=O)c1c(NC(=O)c2nc(S(C)(=O)=O)ncc2Cl)sc(C(C)=O)c1C`, 3.43 µM [falling, full curve]. `Cc1ccc(NC(=O)CSc2ncc3c(n2)-c2ccccc2N(C)S3(=O)=O)c(Cl)c1`: the AC50 was 17.2 µM [falling, partial curve, poor fit].
